# This is one part of the list.
# Key:
# HSkMC = human skeletal muscle cells; assay: cytotoxicity call (relative viability < 0.9); conditions: 10 µM
# HepG2 = assay: cytotoxicity call (relative viability < 0.9); conditions: 10 µM
# S. aureus RN4220 = assay: growth inhibition call (relative growth <= 0.2); conditions: 50 µM
Structure (SMILES),cytotoxicity call (HSkMC),cytotoxicity call (HepG2),growth inhibition call (S. aureus RN4220)
C[C@@H]1CN([C@H](C)CO)C(=O)Cc2cc(NC(=O)CCCCCC(=O)Nc3ccccc3N)ccc2O[C@H]1CN(C)Cc1ccc(Oc2ccccc2)cc1,inactive,inactive,inactive
N#Cc1cc(F)cc(Oc2ccc(S(=O)(=O)C(F)F)c3c2CC(F)(F)[C@@H]3O)c1.N#Cc1cc(F)cc(Oc2ccc(S(=O)(=O)C(F)F)c3c2CC(F)(F)[C@H]3O)c1,inactive,inactive,inactive
C[C@H]1CN([C@@H](C)CO)C(=O)CCCn2cc(nn2)CO[C@H]1CN(C)C(=O)Nc1ccc(N2CCN(C)CC2)cc1,inactive,inactive,inactive
Cc1noc(C)c1NC(=O)Nc1ccc2c(c1)C(=O)N([C@H](C)CO)C[C@@H](C)[C@@H](CN(C)Cc1ccc(C(=O)Nc3ccccc3N)cc1)O2,inactive,inactive,inactive
Cc1cccc(NC(=O)Nc2ccc3c(c2)C(=O)N(C)[C@@H]2CC[C@@H](CC(=O)NCc4ccccc4Cl)O[C@@H]2CO3)c1,inactive,inactive,inactive
CC(C)CC#Cc1ccc2c(c1)O[C@@H](CN(C)C(=O)c1cnccn1)[C@@H](C)CN([C@@H](C)CO)S2(=O)=O,inactive,inactive,inactive
COC(=O)C[C@H]1CC[C@H]2[C@@H](COC[C@H](O)CN2S(=O)(=O)c2ccccc2C)O1,inactive,inactive,inactive
COc1ccc(S(=O)(=O)N(C)C[C@@H]2Oc3ccc(N(C)C)cc3C(=O)N([C@@H](C)CO)C[C@H]2C)cc1,inactive,active,inactive
C[C@@H]1CCCCO[C@@H](CN(C)CC2CC2)[C@H](C)CN([C@@H](C)CO)C(=O)c2cc(NC(=O)Nc3cccc4ccccc34)ccc2O1,inactive,inactive,inactive
Cc1noc(C)c1NC(=O)N(C)C[C@H]1OCCCC[C@@H](C)Oc2ccc(NC(=O)CCC(F)(F)F)cc2C(=O)N([C@@H](C)CO)C[C@H]1C,inactive,inactive,inactive
C[C@H]1O[C@H](O[C@H]2[C@H](O)[C@@H](O)[C@@H](O[C@H]3[C@H](O)[C@@H](O)[C@H](O)O[C@@H]3CO)O[C@@H]2CO)[C@H](O)[C@@H](O)[C@@H]1N[C@H]1C=C(CO)[C@@H](O)[C@H](O)[C@H]1O,inactive,inactive,inactive
COCC(=O)OCn1nnc2ccccc2c1=O,inactive,inactive,inactive
Cc1ccc2nc([C@H](N)C(C)C)[nH]c2c1,inactive,inactive,inactive
O=C(C[C@H]1CC[C@H]2[C@@H](COC[C@H](O)CN2S(=O)(=O)c2cccc(Cl)c2)O1)N1CCOCC1,inactive,inactive,inactive
CC(=O)N1C(=O)N(C(C)=O)[C@@H](O)[C@H]1O,inactive,inactive,inactive
Cc1noc(C)c1NC(=O)Nc1ccc2c(c1)C(=O)N([C@H](C)CO)C[C@@H](C)[C@H](CN(C)CC1CCCCC1)OCCCC[C@@H](C)O2,inactive,inactive,inactive
C[C@@H]1CN([C@@H](C)CO)C(=O)c2cccc(NC(=O)Nc3ccc4c(c3)OCO4)c2O[C@@H]1CN(C)Cc1ccc(Oc2ccccc2)cc1,inactive,inactive,inactive
O=C(C[C@H]1CC[C@H]2[C@@H](COC[C@@H](O)CN2S(=O)(=O)c2ccc(Cl)cc2)O1)NCC1CCCCC1,inactive,inactive,inactive
C[C@@H]1CN([C@@H](C)CO)C(=O)Cc2cc(N(C)C)ccc2O[C@H]1CN(C)S(=O)(=O)c1ccc(F)cc1,inactive,inactive,inactive
Cc1noc(C)c1S(=O)(=O)N(C)C[C@@H]1OCCCC[C@H](C)Oc2ccc(N(C)C)cc2C(=O)N([C@H](C)CO)C[C@H]1C,inactive,inactive,inactive
Cc1ccc(S(=O)(=O)N(C)C[C@@H]2Oc3ccc(NS(=O)(=O)c4ccccc4)cc3CC(=O)N([C@H](C)CO)C[C@@H]2C)cc1,inactive,inactive,inactive
C[C@@H]1CN([C@@H](C)CO)S(=O)(=O)c2ccc(C#Cc3ccccc3F)cc2O[C@H]1CN(C)CC1CC1,inactive,inactive,inactive
C[C@@H]1CN([C@@H](C)CO)C(=O)c2cc(NC(=O)Nc3cccc4ccccc34)ccc2O[C@@H](C)CCCCO[C@H]1CN(C)CC1CC1,inactive,inactive,inactive
COC(=O)c1cccc(OC(N)=O)c1,inactive,inactive,inactive
CC(C)c1cc(=O)n2nc(N)nc2[nH]1,inactive,inactive,inactive
Cc1noc(C)c1NC(=O)N(C)C[C@H]1Oc2ccc(NC(=O)CCN3CCOCC3)cc2CC(=O)N([C@@H](C)CO)C[C@@H]1C,inactive,inactive,inactive
C[C@@H]1CN([C@H](C)CO)C(=O)c2cc(NC(=O)Nc3ccc(F)cc3)ccc2O[C@@H](C)CCCCO[C@H]1CN(C)Cc1ccc(C(=O)O)cc1,inactive,inactive,inactive

Structure (SMILES),cytotoxicity call (HSkMC),cytotoxicity call (HepG2),growth inhibition call (S. aureus RN4220)
C[C@H](CO)N1C[C@H](C)[C@@H](CN(C)C(=O)c2ccccc2)OCCCC[C@H](C)Oc2ccc(NS(=O)(=O)c3cccs3)cc2C1=O,inactive,inactive,inactive
COc1ccc(NC(=O)Nc2ccc3c(c2)C(=O)N([C@@H](C)CO)C[C@H](C)[C@H](CN(C)C(=O)C2CCCCC2)OCCCC[C@H](C)O3)cc1,inactive,active,inactive
CCCCCOC(=O)Nc1nc(=O)n(C2OC(C)C(O)C2O)cc1F (configuration not stated),inactive,inactive,inactive
C[C@H](CO)N1C[C@H](C)[C@H](CN(C)C(=O)c2ccccc2)OCCCC[C@H](C)Oc2ccc(NC(=O)Nc3ccc(C(F)(F)F)cc3)cc2C1=O,inactive,inactive,inactive
Cn1c(C(=O)N2CCCO[C@@H](Cn3cccn3)C2)cc(=O)n(C)c1=O,inactive,inactive,inactive
C[C@@H]1CN([C@H](C)CO)C(=O)c2cccc(NC(=O)c3nc4ccccc4s3)c2O[C@@H]1CN(C)C(=O)Nc1ccc(F)cc1,inactive,inactive,inactive
COc1ccc(S(=O)(=O)N(C)C[C@H]2Oc3ccc(NC(=O)Cc4ccccc4)cc3C(=O)N([C@@H](C)CO)C[C@H]2C)cc1,inactive,inactive,inactive
C[C@@H]1CN([C@@H](C)CO)C(=O)c2cc(NC(=O)Cn3cnnn3)ccc2O[C@H]1CN(C)Cc1ccc(C(=O)O)cc1,inactive,inactive,inactive
C[C@@H]1CN([C@H](C)CO)C(=O)c2cc(NC(=O)Cn3cnnn3)ccc2O[C@H]1CN(C)S(=O)(=O)c1cn(C)cn1,inactive,inactive,inactive
C[C@@H]1CCCCO[C@H](CN(C)C(=O)CCCN(C)C)[C@H](C)CN([C@@H](C)CO)C(=O)c2cc(NS(=O)(=O)c3cn(C)cn3)ccc2O1,inactive,inactive,inactive
Cn1cc(C(=O)O)cn1,inactive,inactive,inactive
C[C@@H]1CCCCO[C@H](CN(C)C(=O)Nc2ccc(F)cc2)[C@H](C)CN([C@H](C)CO)C(=O)c2cc(NC(=O)CCC(F)(F)F)ccc2O1,inactive,inactive,inactive
C[C@@H]1CN([C@H](C)CO)C(=O)c2cc(NC(=O)CCC(F)(F)F)ccc2O[C@@H](C)CCCCO[C@H]1CN(C)S(=O)(=O)c1ccc(F)cc1,inactive,inactive,inactive
O=C1c2ccccc2C(=O)c2c(O)c(O)cc(O)c21,inactive,inactive,inactive
C[C@H](CO)N1C[C@H](C)[C@@H](CN(C)Cc2ccc(C(=O)O)cc2)Oc2ncc(C#CCN(C)C)cc2C1=O,inactive,inactive,inactive
CC(C)(C)C(=O)Nc1c[nH]c(=O)[nH]c1=O,inactive,inactive,inactive
C[C@H]1CN([C@@H](C)CO)C(=O)c2cccc(NC(=O)c3ccc(-c4nccs4)cc3)c2O[C@@H]1CN(C)Cc1ccc2c(c1)OCO2,inactive,inactive,inactive
Cc1noc(C)c1S(=O)(=O)Nc1ccc2c(c1)CC(=O)N([C@@H](C)CO)C[C@@H](C)[C@@H](CN(C)Cc1ccccc1)O2,inactive,inactive,inactive
COc1ccc(S(=O)(=O)N2C[C@@H](O)COC[C@@H]3O[C@H](CC(=O)N[C@@H]4CCN(Cc5ccccc5)C4)CC[C@H]32)cc1,inactive,inactive,inactive
CCC(=O)NCCC1CCc2ccc3c(c21)CCO3 (configuration not stated),inactive,active,inactive
C[C@@H]1CN([C@H](C)CO)C(=O)c2cccc(NC(=O)c3ccc(-c4nccs4)cc3)c2O[C@@H]1CN(C)Cc1ccc(Oc2ccccc2)cc1,inactive,inactive,inactive
COc1ccc(CN(C)C[C@H]2OCCCC[C@H](C)Oc3ccc(NC(=O)Nc4cccc5ccccc45)cc3C(=O)N([C@@H](C)CO)C[C@H]2C)cc1,inactive,inactive,inactive
Cc1ccc(S(=O)(=O)Nc2ccc3c(c2)C(=O)N([C@@H](C)CO)C[C@@H](C)[C@@H](CN(C)S(=O)(=O)c2ccc(F)cc2)OCCCC[C@@H](C)O3)cc1,inactive,inactive,inactive
C[C@H]1CN([C@@H](C)CO)C(=O)c2cc(-c3cccc(C(=O)N(C)C)c3)cnc2O[C@@H]1CN(C)S(=O)(=O)c1ccc(F)cc1,inactive,inactive,inactive
Cc1noc(C)c1NC(=O)N(C)C[C@@H]1OCCCC[C@@H](C)Oc2ccc(NC(=O)Nc3cccc4ccccc34)cc2C(=O)N([C@H](C)CO)C[C@@H]1C,inactive,inactive,inactive
Cc1ccc(S(=O)(=O)Nc2ccc3c(c2)CC(=O)N([C@@H](C)CO)C[C@H](C)[C@@H](CN(C)S(=O)(=O)c2cccs2)O3)cc1,inactive,inactive,inactive
C[C@H](CO)N1C[C@H](C)[C@@H](CN(C)C(=O)Nc2cccc3ccccc23)Oc2ccc(NC(=O)C3CCCCC3)cc2CC1=O,inactive,inactive,inactive

# From the antibiotic and cytotoxicity screens of Wong et al. (2023)
